# Values quoted from earlier work, collected in patent publication US12240904B2, “Use of anti-PD-1 antibody in combination with famitinib in preparation of drug for treating tumors” (Jiangsu Hengrui Medicine Co., Ltd., priority 2018, dated 2025).
# Tested on: solid tumors
# Settings: in vivo; cited from earlier work
molecule,measurement,value
"Compound A: PD-1 antibody with heavy and light chain sequences as shown in SEQ ID NO: 7 and SEQ ID NO: 8 (antibody, PEPTIDE (1)..(443) heavy chain sequence; PEPTIDE (1)..(214) light chain sequence) heavy: EVQLVESGGGLVQPGGSLRLSCAASGFTFSSYMMSWVRQAPGKGLEWVATISGGGANTYYPDSVKGRFTISRDNAKNSLYLQMNSLRAEDTAVYYCARQLYYFDYWGQGTTVTVSSASTKGPSVFPLAPCSRSTSESTAALGCLVKDYFPEPVTVSWNSGALTSGVHTFPAVLQSSGLYSLSSVVTVPSSSLGTKTYTCNVDHKPSNTKVDKRV[human IgG4 Fc with S228P (EU numbers) not spelt out] light: DIQMTQSPSSLSASVGDRVTITCLASQTIGTWLTWYQQKPGKAPKLLIYTATSLADGVPSRFSGSGSGTDFTLTISSLQPEDFATYYCQQVYSIPWTFGGGTKVEIKRTVAAPSVFIFPPSDEQLKSGTASVVCLLNNFYPREAKVQWKVDNALQSGNSQESVTEQDSKDSTYSLSSTLTLSKADYEKHKVYACEVTHQGLSSPVTKSFNRGEC",incidence of reactive cutaneous capillary hyperplasia,54.3%
